Laboratory results from paper PMC4463469.
These are yes or no findings as the source states them, for the method shown. In cells and extracts the contact can be indirect. Some binding calls cover weakened binding; strength is not graded here. Tags and fused reporters may be left off the sequences shown.

T1: Cox17 fusion protein with a C-terminal FLAG tag (S. cerevisiae) (UniProt Q12287)
T1 sequence: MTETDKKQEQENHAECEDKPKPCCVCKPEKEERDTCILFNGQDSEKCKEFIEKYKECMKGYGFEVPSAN

T2: Mic60 with a C-terminal protein A tag (S. cerevisiae) (UniProt P36112)
T2 sequence: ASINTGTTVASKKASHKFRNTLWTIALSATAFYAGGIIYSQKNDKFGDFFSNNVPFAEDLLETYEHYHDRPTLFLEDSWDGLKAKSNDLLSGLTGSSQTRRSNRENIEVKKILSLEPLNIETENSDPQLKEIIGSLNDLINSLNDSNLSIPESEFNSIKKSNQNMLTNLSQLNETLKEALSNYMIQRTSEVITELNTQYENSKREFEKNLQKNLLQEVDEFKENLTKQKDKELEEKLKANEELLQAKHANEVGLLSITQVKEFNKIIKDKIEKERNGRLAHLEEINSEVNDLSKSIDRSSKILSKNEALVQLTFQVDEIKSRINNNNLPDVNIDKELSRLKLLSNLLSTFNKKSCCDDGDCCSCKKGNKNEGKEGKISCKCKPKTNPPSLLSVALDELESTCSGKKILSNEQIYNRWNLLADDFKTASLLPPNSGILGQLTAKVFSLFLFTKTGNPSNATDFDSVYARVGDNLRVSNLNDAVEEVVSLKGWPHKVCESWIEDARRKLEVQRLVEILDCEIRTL

B1: Mic60 (protein, UniProt P36112 18-540)
chain: T2 sequence
B2: Mia40 (protein, UniProt P36046 32-403)
chain: MASSPQFGRNSNQEKTAGFIMGILSMAGALYFIAPNRKPLFASRKVESDKTAEEELSSGGEQSPENEDDNNSKSDENGDDNDSKNDETEAGPQLGGDKIGASKVAEDGELVVLAEEDNKSSEDKDTDESKVSTKDDEQSNEDNATANNQKDENISSENSEENTSDKTLDNNAGSSEKKDPEHSDDEKSQQGQSDDKTTTEDNNGEEESSKKTVSDSENSAKQSESSDEEKEELRKQEEKQMGPTEEEVQHEGAYNPDTGEINWDCPCLGGMAHGPCGEEFKSAFSCFVYSEAEPKGIDCVEKFQHMQDCFRKYPEHYAEQLKETSDDEEPQDKVKVNTIESAPNVSSAKENAAKKAEQSDVKKEPLNEESKP
B3: Cyc3 (protein, UniProt P06182 1-269)
chain: MGWFWADQKTTGKDIGGAAVSSMSGCPVMHESSSSSPPSSECPVMQGDNDRINPLNNMPELAASKQPGQKMDLPVDRTISSIPKSPDSNEFWEYPSPQQMYNAMVRKGKIGGSGEVAEDAVESMVQVHNFLNEGCWQEVLEWEKPHTDESHVQPKLLKFMGKPGVLSPRARWMHLCGLLFPSHFSQELPFDRHDWIVLRGERKAEQQPPTFKEVRYVLDFYGGPDDENGMPTFHVDVRPALDSLDNAKDRMTRFLDRMISGPSSSSSAP
B4: Mic12 (protein, UniProt P38341 1-106)
chain: MSKLGPLARSVKWTLSVGVIGSVFYLYRYSNNGYFYDHDATWLKQDHQVQDLVDRKEVVPGETRNRKLVVTDDGTAWSRTMGESIKDIWNEQIRNSVDWIYSWGKN
B5: Mic26 (protein, UniProt P50087 1-233)
chain: MTKDFYRQLDPVEEKIVPPENAIVISSEAKEATVNEKEAKQGVLSQRVMKYIGENELVDGISVRDPDYLKRFFNERRKQFSAKWDKVTNKIDDIAGRYYAREESFTSTIASLHTDPNERLIPGLLSILVASMTGSVLARRRTWLLRATMPIILGSCCFAYAMPTTFRNTMGLIHNLEMNTFPHFTERQDRVWKETKRLSTASVQYYYDAKKWLNKDVEKTGNAIKNWTGVNVK
B6: Mic10 (protein, UniProt Q96VH5 1-97)
chain: MSEQAQTQQPAKSTPSKDSNKNGSSVSTILDTKWDIVLSNMLVKTAMGFGVGVFTSVLFFKRRAFPVWLGIGFGVGRGYAEGDAIFRSSAGLRSSKV
B7: Mic19 (protein, UniProt P43594 1-170)
chain: MGSNTSKVGAGAEKQQVYTPLTQIDFSQSLVSQLDSSKESDYVTKQNAEKFIEKKVSQRLSNLEVETLKKFEDTLNNSLLSDDDKDAVDGISSSSLNNQIESLNKKLTLFDQLELQKLEKYGGAKGKSDKKTDNGSISIKAKLTECLLANKGKPLNCYEEMEEFKKLVMG
B8: native Cox17 (protein, UniProt Q12287 1-69)
chain: T1 sequence
B9: Mir1 (protein, UniProt P23641 1-311)
chain: MSVSAAPAIPQYSVSDYMKFALAGAIGCGSTHSSMVPIDVVKTRIQLEPTVYNKGMVGSFKQIIAGEGAGALLTGFGPTLLGYSIQGAFKFGGYEVFKKFFIDNLGYDTASRYKNSVYMGSAAMAEFLADIALCPLEATRIRLVSQPQFANGLVGGFSRILKEEGIGSFYSGFTPILFKQIPYNIAKFLVFERASEFYYGFAGPKEKLSSTSTTLLNLLSGLTAGLAAAIVSQPADTLLSKVNKTKKAPGQSTVGLLAQLAKQLGFFGSFAGLPTRLVMVGTLTSLQFGIYGSLKSTLGCPPTIEIGGGGH
B10: Erv1 (protein, UniProt P27882 1-189)
chain: MKAIDKMTDNPPQEGLSGRKIIYDEDGKPCRSCNTLLDFQYVTGKISNGLKNLSSNGKLAGTGALTGEASELMPGSRTYRKVDPPDVEQLGRSSWTLLHSVAASYPAQPTDQQKGEMKQFLNIFSHIYPCNWCAKDFEKYIRENAPQVESREELGRWMCEAHNKVNKKLRKPKFDCNFWEKRWKDGWDE
B11: Ccp1 (protein, UniProt P00431 68-361)
chain: TTPLVHVASVEKGRSYEDFQKVYNAIALKLREDDEYDNYIGYGPVLVRLAWHTSGTWDKHDNTGGSYGGTYRFKKEFNDPSNAGLQNGFKFLEPIHKEFPWISSGDLFSLGGVTAVQEMQGPKIPWRCGRVDTPEDTTPDNGRLPDADKDADYVRTFFQRLNMNDREVVALMGAHALGKTHLKNSGYEGPWGAANNVFTNEFYLNLLNEDWKLEKNDANNEQWDSKSGYMMLPTDYSLIQDPKYLSIVKEYANDQDKFFKDFSKAFEKLLENGITFPKDAPSPFIFKTLEEQGL

Biological target: T1, Cox17 fusion protein with a C-terminal FLAG tag (S. cerevisiae)
Assay: co-IP; anti-FLAG M2 affinity gel on isolated wild-type mitochondria solubilized in 1% digitonin, 10% glycerol, 20 mM Tris-HCl pH 7.4, 300 mM NaCl, 50 mM iodoacetamide; Western blot of eluate

| binding | Binder |
| --- | --- |
| binds | B1 |
| binds | B2 |
| no binding | B3 |

Biological target: T2, Mic60 with a C-terminal protein A tag (S. cerevisiae)
Assay: co-IP; Mic60_(ProtA) captured on immunoglobulin G-Sepharose from isolated mitochondria solubilized in 1% digitonin, 10% glycerol, 20 mM Tris-HCl pH 7.4, 50 mM NaCl, 0.5 mM EDTA, 50 mM iodoacetamide, 1 h at 4 °C; Western blot of eluate; wild-type and sco1Δ background

| binding | Binder |
| --- | --- |
| binds | B4 |
| binds | B5 |
| binds | B6 |
| binds | B7 |
| binds | B8 |

Biological target: T1, Cox17 fusion protein with a C-terminal FLAG tag (S. cerevisiae)
Assay: co-IP; anti-FLAG M2 affinity gel on yeast cell extracts (French press, 1% digitonin, 20 mM Tris-HCl pH 7.4, 50 mM NaCl, 50 mM iodoacetamide), 1.5 h at 4 °C; Western blot of eluate; wild-type, mic60Δ, mic10Δ and sco1Δ cells; cells grown with or without 2.2 mM copper sulfate

| binding | Binder |
| --- | --- |
| binds | B1 |
| no binding | B9 |
| binds | B10 |
| no binding | B11 |
| binds | B2 |
| no binding | B3 |
